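Method: 48-hour compound exposure of cells in 96-well plates, five concentrations, linear interpolation of endpoints. Here, GI50 denotes the concentration required for 50% inhibition of growth. At the TGI there is no net growth.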

Drawing on PubChem BioAssay (NCI), this text covers GI50 and TGI for six compounds.

In the experiment the test system is NCI-H322M lung. The experiment in a line: inhibition of tumour cell growth, NCI panel, 48 h.

Regarding `COc1ccc2ncc(C#Cc3cncc(C(=O)Nc4ccc(CN5CCN(C)CC5)c(C(F)(F)F)c4)c3)n2n1`, the GI50 was 2.7 µM and the TGI was above 28.3 µM.

Consider `COc1sc(/C=N/NC(=O)c2[nH]c3ccc(Br)cc3c2-c2ccccc2)cc1Br`, for which the GI50 was 4.81 µM and the TGI was above 100 µM.

As for `O=C(NN1C(=O)/C(=C/C=C/c2ccc([N+](=O)[O-])o2)SC1=S)c1cccc(O)c1`, the GI50 was 5.02 µM and the TGI is 17.8 µM.

Consider `Fc1ccc(N2CC(Cn3c(C(F)(F)F)cc4c(Cl)ncnc43)C2)c(F)c1`, for which the GI50 was 10.8 µM and the TGI came to 22.7 µM.

In the case of `COc1ccccc1NC(=O)N/N=C/c1c[nH]c2ccccc12`, the GI50 was 7.04 µM and the TGI amounted to 21.2 µM.

Consider `COc1ccc(S(=O)(=O)Nc2ccc(-c3ccc4c(c3)NC(=O)/C4=C\c3ccc[nH]3)cc2)cc1OC`, for which the GI50 was 1.67 µM and the TGI came to 31.1 µM.
